Publication PMC8456271
Results are given in words; binding and its absence hold for the method and conditions named. Binding seen in cells or lysates may run through a third protein. Some entries that bind do so weakly or less than the wild type. Where a sequence is shown, tags or fusion partners need not be part of it.

Sequences of proteins named here, by UniProt entry; tags and fusion partners are left off.
UniProt Q16539: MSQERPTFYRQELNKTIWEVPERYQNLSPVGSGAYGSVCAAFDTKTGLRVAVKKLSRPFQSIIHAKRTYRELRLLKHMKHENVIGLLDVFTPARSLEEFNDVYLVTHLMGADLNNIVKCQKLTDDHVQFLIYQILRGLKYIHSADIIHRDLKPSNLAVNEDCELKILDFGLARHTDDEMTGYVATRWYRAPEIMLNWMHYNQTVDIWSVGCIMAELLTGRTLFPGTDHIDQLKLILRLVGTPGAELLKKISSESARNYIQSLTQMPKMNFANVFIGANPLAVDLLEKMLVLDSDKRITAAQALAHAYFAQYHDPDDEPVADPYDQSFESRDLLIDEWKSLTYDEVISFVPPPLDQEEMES

Legend:
GST‐MKK3 [1] = molecular target: T1, GST‐MKK3 (UniProt P46734); assay: pull-down; purified GST proteins on Glutathione Agarose beads, incubated with cell lysates at 4 °C for 2–4 h, washed three times with lysis buffer, Western blotting; only the target purified
T1 sequence: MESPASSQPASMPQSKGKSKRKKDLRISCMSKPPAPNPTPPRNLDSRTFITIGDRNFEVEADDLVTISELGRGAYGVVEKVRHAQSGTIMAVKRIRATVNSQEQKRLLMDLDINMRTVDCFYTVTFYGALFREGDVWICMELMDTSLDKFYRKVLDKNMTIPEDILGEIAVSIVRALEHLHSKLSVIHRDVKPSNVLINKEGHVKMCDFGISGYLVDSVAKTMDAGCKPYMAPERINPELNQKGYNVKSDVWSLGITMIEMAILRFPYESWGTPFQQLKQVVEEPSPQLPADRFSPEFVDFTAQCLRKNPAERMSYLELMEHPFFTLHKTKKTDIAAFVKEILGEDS

GST‐p38 [2] = molecular target: GST‐p38 (UniProt Q16539); assay: as above
GST‐MKK6 [3] = molecular target: T2, GST‐MKK6 (UniProt P52564); assay: as above
T2 sequence: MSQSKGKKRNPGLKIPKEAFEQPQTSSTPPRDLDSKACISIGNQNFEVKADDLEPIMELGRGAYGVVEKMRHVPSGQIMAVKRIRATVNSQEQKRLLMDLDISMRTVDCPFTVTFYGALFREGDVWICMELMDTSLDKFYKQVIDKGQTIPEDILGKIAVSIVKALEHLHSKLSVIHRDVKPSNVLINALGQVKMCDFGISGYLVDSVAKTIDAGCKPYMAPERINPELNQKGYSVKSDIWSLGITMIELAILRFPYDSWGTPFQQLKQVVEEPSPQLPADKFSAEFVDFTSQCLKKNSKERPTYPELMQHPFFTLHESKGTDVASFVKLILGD

GST‐MKK3 [4] = molecular target: T1, GST‐MKK3; assay: FRET or BRET; cell lysates containing Venus‐tagged DDIT4 (acceptor) incubated with GST recombinant proteins (donor); 20 × 10^−3 M Tris pH 7.0, 50 × 10^−3 M NaCl, 0.01% NP‐40; 96‐well plate, room temperature, 1 h; ratio 520 nm / 486 nm; only the target purified
GST‐p38 [5] = molecular target: GST‐p38 (UniProt Q16539); assay: as above
GST‐MKK6 [6] = molecular target: T2, GST‐MKK6; assay: as above

B1: DDIT4 in cell lysates (GST pull‐down) (protein, UniProt Q9NX09 1-232)
chain: MPSLWDRFSSSSTSSSPSSLPRTPTPDRPPRSAWGSATREEGFDRSTSLESSDCESLDSSNSGFGPEEDTAYLDGVSLPDFELLSDPEDEHLCANLMQLLQESLAQARLGSRRPARLLMPSQLVSQVGKELLRLAYSEPCGLRGALLDVCVEQGKSCHSVGQLALDPSLVPTFQLTLVLRLDSRLWPKIQGLFSSANSPFLPGFSQSLTLSTGFRVIKKKLYSSEQLLIEEC
GST‐MKK3 [1]
  binding: no binding
GST‐p38 [2]
  binding: binds
GST‐MKK6 [3]
  binding: no binding

B2: Venus‐tagged DDIT4 (protein, UniProt Q9NX09 1-232)
chain: B1 chain
GST‐MKK3 [4]
  binding: no binding
GST‐p38 [5]
  binding: binds
GST‐MKK6 [6]
  binding: no binding
